Source: patent US20210340213A1 (BEIJING VDJBIO, published 2021)
Read-outs that look alike come from different tables or passages of the source. Values belong to the binder of their own block, whether it stands above or below them.

Columns and labels:
CD80 [1] = molecular target: T1, CD80 (UniProt P33681 35-242, limits assumed); assay: SPR BIAcore 3000, 25 C; CTLA4-Ig on chip, CD80 analyte
T1 construct: also called B7-1
T1 sequence (looked up): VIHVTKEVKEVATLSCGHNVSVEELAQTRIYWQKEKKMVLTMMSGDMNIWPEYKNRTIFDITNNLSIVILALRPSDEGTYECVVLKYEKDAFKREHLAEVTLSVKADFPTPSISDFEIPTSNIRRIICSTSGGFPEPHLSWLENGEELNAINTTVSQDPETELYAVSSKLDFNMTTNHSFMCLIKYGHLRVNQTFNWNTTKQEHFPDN

CD86 [2] = molecular target: T2, CD86 (UniProt P42081 24-247, limits assumed); assay: SPR BIAcore 3000, 25 C; CTLA4-Ig on chip, CD86 analyte
T2 construct: also called B7-2
T2 sequence (looked up): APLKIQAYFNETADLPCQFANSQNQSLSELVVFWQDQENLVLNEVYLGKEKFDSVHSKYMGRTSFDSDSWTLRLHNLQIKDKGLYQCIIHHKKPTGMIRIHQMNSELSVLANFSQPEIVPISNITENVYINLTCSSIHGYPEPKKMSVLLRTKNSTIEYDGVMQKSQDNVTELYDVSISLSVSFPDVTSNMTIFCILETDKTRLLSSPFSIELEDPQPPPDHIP

CD80 [3] = molecular target: T1, CD80; assay: SPR BIAcore 3000, 25 C; CTLA4-Ig on chip, CD80 analyte; remark: listed apart in the source
CD86 [4] = molecular target: T2, CD86; assay: SPR BIAcore 3000, 25 C; CTLA4-Ig on chip, CD86 analyte; remark: listed apart in the source
CD80 [5] = molecular target: T1, CD80; assay: SPR BIAcore 3000, 25 C; CTLA4-Ig on chip, CD80 analyte; remark: listed apart in the source
CD86 [6] = molecular target: T2, CD86; assay: SPR BIAcore 3000, 25 C; CTLA4-Ig on chip, CD86 analyte; remark: listed apart in the source

Kd (CD80 [1]): 0.0785 nM | Relative affinity (KD(abatacept)/KD(variant)) (CD80 [1]): 38.1 | koff (CD80 [1]): 2.66e-05 s⁻¹ | kon (CD80 [1]): 339000 M⁻¹ s⁻¹ | Kd (CD86 [2]): 4.58 nM | Relative affinity (KD(abatacept)/KD(variant)) (CD86 [2]): 1.53 | koff (CD86 [2]): 0.00259 s⁻¹ | kon (CD86 [2]): 566000 M⁻¹ s⁻¹
B1: CTLA4-Ig variant 121# (Fc fusion)
chain: MHVAQPAVVLASSRGIASFVCEYASPDKKATEVRVTVLRQADSQVTEVCAATYMMGNELTFLDDSICTFTSSGNQVNVTIQGLRAMDTGLYICKVELMYPPPYYLSIGNGTQIYVIDSEPCPDSDQ[human IgG1 Fc with changes not given here]

Kd (CD80 [3]): 17.3 nM | Relative affinity (KD(abatacept)/KD(variant)) (CD80 [3]): 0.62 | koff (CD80 [3]): 0.00231 s⁻¹ | kon (CD80 [3]): 134000 M⁻¹ s⁻¹ | Kd (CD86 [4]): 49.4 nM | Relative affinity (KD(abatacept)/KD(variant)) (CD86 [4]): 1.68 | koff (CD86 [4]): 0.11 s⁻¹ | kon (CD86 [4]): 2.22e+06 M⁻¹ s⁻¹
B2: CTLA4-Ig variant 98# (Fc fusion)
chain: MHVAQPAVVLASSRGIASFVCEYASPDKKATEVRVTVLRQADSQVTEVCAATYMMGNELTFLDDSICTETSSGNQVNLTIQGLRAMDTGLYICKVELMYPPPYYLGIGNGTQIYVIDPEPCPDSDQ[human IgG1 Fc with changes not given here]

Kd (CD80 [1]): 0.631 nM | Relative affinity (KD(abatacept)/KD(variant)) (CD80 [1]): 4.74 | koff (CD80 [1]): 0.000181 s⁻¹ | kon (CD80 [1]): 287000 M⁻¹ s⁻¹ | Kd (CD86 [2]): 4.68 nM | Relative affinity (KD(abatacept)/KD(variant)) (CD86 [2]): 1.49 | koff (CD86 [2]): 0.00236 s⁻¹ | kon (CD86 [2]): 504000 M⁻¹ s⁻¹
B3: CTLA4-Ig variant 117# (Fc fusion)
chain: MHVAQPAVVLASSRGIASFVCEYASPKKKATEVRVTVLRQADSQVTEVCAATYMMGNELTFLDDSICTFTSSGNQVNLTIQGLRAMDTGLYICKVELMYPPPYYLGIGNGTQIYVIDPEPCPDSDQ[human IgG1 Fc with changes not given here]

Kd (CD86 [4]): 11.2 nM
B4: CTLA4-Ig variant 99# (Fc fusion)
chain: MHVAQPAVVLASSRGIASFVCEYASPDKATEVRVTVLRQADSQVTEVCAATYMMGNELTFLDDSICTFTSSGNQVNLTIQGLRAMDTGLYICKVELMYPPPYYLGIGNGTQIYVIDPEPCPDSDQ[human IgG1 Fc with changes not given here]

Kd (CD80 [5]): 0.787 nM | Relative affinity (KD(abatacept)/KD(variant)) (CD80 [5]): 26.8 | koff (CD80 [5]): 0.000201 s⁻¹ | kon (CD80 [5]): 255000 M⁻¹ s⁻¹ | Kd (CD86 [6]): 5.07 nM | Relative affinity (KD(abatacept)/KD(variant)) (CD86 [6]): 51.9 | koff (CD86 [6]): 0.00258 s⁻¹ | kon (CD86 [6]): 508000 M⁻¹ s⁻¹ | Kd (CD80 [3]): 0.786 nM | Relative affinity (KD(abatacept)/KD(variant)) (CD80 [3]): 13.6 | koff (CD80 [3]): 0.000167 s⁻¹ | kon (CD80 [3]): 213000 M⁻¹ s⁻¹ | Kd (CD86 [4]): 7.72 nM | Relative affinity (KD(abatacept)/KD(variant)) (CD86 [4]): 10.7 | koff (CD86 [4]): 0.00399 s⁻¹ | kon (CD86 [4]): 517000 M⁻¹ s⁻¹ | Kd (CD80 [1]): 0.0595 nM | Relative affinity (KD(abatacept)/KD(variant)) (CD80 [1]): 50.2 | koff (CD80 [1]): 2.26e-05 s⁻¹ | kon (CD80 [1]): 380000 M⁻¹ s⁻¹ | Kd (CD86 [2]): 0.699 nM | Relative affinity (KD(abatacept)/KD(variant)) (CD86 [2]): 10 | koff (CD86 [2]): 0.000319 s⁻¹ | kon (CD86 [2]): 457000 M⁻¹ s⁻¹
B5: CTLA4-Ig variant 75# (Fc fusion)
chain: MHVAQPAVVLASSRGIASFVCEYASPDKAKATEVRVTVLRQADSQVTEVCAATYMMGNELTFLDDSICTFTSSGNQVNLTIQGLRAMDTGLYICKVELMYPPPYYLGIGNGTQIYVIDPEPCPDSDQ[human IgG1 Fc with changes not given here]

Kd (CD80 [5]): 7.49 nM | Relative affinity (KD(abatacept)/KD(variant)) (CD80 [5]): 2.82 | koff (CD80 [5]): 0.00108 s⁻¹ | kon (CD80 [5]): 144000 M⁻¹ s⁻¹ | Kd (CD86 [6]): 14.2 nM | Relative affinity (KD(abatacept)/KD(variant)) (CD86 [6]): 18.5 | koff (CD86 [6]): 0.00487 s⁻¹ | kon (CD86 [6]): 343000 M⁻¹ s⁻¹ | Kd (CD80 [3]): 2.1 nM | Relative affinity (KD(abatacept)/KD(variant)) (CD80 [3]): 5.1 | koff (CD80 [3]): 0.00067 s⁻¹ | kon (CD80 [3]): 319000 M⁻¹ s⁻¹ | Kd (CD86 [4]): 8.9 nM | Relative affinity (KD(abatacept)/KD(variant)) (CD86 [4]): 9.3 | koff (CD86 [4]): 0.00533 s⁻¹ | kon (CD86 [4]): 599000 M⁻¹ s⁻¹
B6: CTLA4-Ig variant 71# (Fc fusion)
chain: MHVAQPAVVLASSRGIASFVCEYASPDKAKATEVRVTVLRQADSQVTEVCAATYMMGNELTFLDDSICTGTSSGNQVNLTIQGLRAMDTGLYICKVELMYPPPYYLGIGNGTQIYVIDPEPCPDSDQ[human IgG1 Fc with changes not given here]

Kd (CD80 [1]): 0.0562 nM | Relative affinity (KD(abatacept)/KD(variant)) (CD80 [1]): 53.2 | koff (CD80 [1]): 1.95e-05 s⁻¹ | kon (CD80 [1]): 347000 M⁻¹ s⁻¹ | Kd (CD86 [2]): 0.705 nM | Relative affinity (KD(abatacept)/KD(variant)) (CD86 [2]): 9.91 | koff (CD86 [2]): 0.00029 s⁻¹ | kon (CD86 [2]): 411000 M⁻¹ s⁻¹
B7: CTLA4-Ig variant 131# (Fc fusion)
chain: MHVAQPAVVLASSRGIASFVCEYASPDKAKATEVRVTVLRQTDSQVTEVCAATYMMGNELTFLDDSICTFTSSGNQVNLTIQGLRAMDTGLYICKVELMYPPPYYLGIGNGTQIYVIDPEPCPDSDQ[human IgG1 Fc with changes not given here]

Kd (CD80 [1]): 0.131 nM | Relative affinity (KD(abatacept)/KD(variant)) (CD80 [1]): 22.8 | koff (CD80 [1]): 4.24e-05 s⁻¹ | kon (CD80 [1]): 324000 M⁻¹ s⁻¹ | Kd (CD86 [2]): 0.758 nM | Relative affinity (KD(abatacept)/KD(variant)) (CD86 [2]): 9.22 | koff (CD86 [2]): 0.000292 s⁻¹ | kon (CD86 [2]): 385000 M⁻¹ s⁻¹
B8: CTLA4-Ig variant 118# (Fc fusion)
chain: MHVAQPAVVLASSRGIASFVCEYASPDKAKATEVRVTVLRQADSQVTEVCAATYMMGNELTFLDDSICTFTSSGNQVNLTIQGLRAMDTGLYICKVELMYPPPYYLGIGNGTQIYVIDSEPCPDSDQ[human IgG1 Fc with changes not given here]

Kd (CD80 [1]): 0.122 nM | Relative affinity (KD(abatacept)/KD(variant)) (CD80 [1]): 24.5 | koff (CD80 [1]): 4.24e-05 s⁻¹ | kon (CD80 [1]): 348000 M⁻¹ s⁻¹ | Kd (CD86 [2]): 0.839 nM | Relative affinity (KD(abatacept)/KD(variant)) (CD86 [2]): 8.33 | koff (CD86 [2]): 0.000347 s⁻¹ | kon (CD86 [2]): 414000 M⁻¹ s⁻¹
B9: CTLA4-Ig variant 112# (Fc fusion)
chain: MHVAQPAVVLASSRGIASFVCEYASPDKAKATEVRVTVLRQTDSQVTEVCAATYMMGNELTFLDDSICTFTSSGNQVNLTIQGLRAMDTGLYICKVELMYPPPYYLGIGNGTQIYVIDSEPCPDSDQ[human IgG1 Fc with changes not given here]
